Experimental data published in the supplement of paper PMC7125110.
± gives the standard error. This sample is rich in variants without activity.

B1: glmS ribozyme (parent)
chain: AUAAAAGCGCCAGAACUACAGAAAUGUAGUUGACGAGGAGGAGGUUUAUCGAAUUUUCGGCGGAUGCCUCCAAA

Key:
Details in all cases: with glucosamine-6-phosphate
[1] = variants of: B1; test: self-cleavage kobs at 40 uM GlcN6P; higher = faster cleavage; RNA array
Method in brief: (§1)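 E. coli RNA polymerase transcribed barcoded ribozyme variants in situ on sequenced MiSeq chips, which were tracked via a hybridised Cy3 probe at 37 °C. Tiles were imaged over ~14 h after glucosamine-6-phosphate (40 μM to 10 mM) in HEPES/KCl/Mg(OAc)2 buffer was flowed in. Normalised per-tile medians were fit to one- or two-exponential decays for kobs, and kcat and KM came from weighted Michaelis–Menten fits.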

[2] = variants of: B1; test: self-cleavage kobs at 640 uM GlcN6P; higher = faster cleavage; RNA array
Method in brief: as §1

[3] = variants of: B1; test: self-cleavage kobs at 2500 uM GlcN6P; higher = faster cleavage; RNA array
Method in brief: as §1

[4] = variants of: B1; test: self-cleavage kobs at 160 uM GlcN6P; higher = faster cleavage; RNA array
Method in brief: as §1

[5] = variants of: B1; test: self-cleavage kobs at 10000 uM GlcN6P; higher = faster cleavage; RNA array
Method in brief: as §1

## C8G A14G A42U A52C A64C
[1]
  self-cleavage kobs at 40 uM GlcN6P: < 1e-05 s⁻¹
[2]
  self-cleavage kobs at 640 uM GlcN6P: < 1e-05 s⁻¹
[3]
  self-cleavage kobs at 2500 uM GlcN6P: < 1e-05 s⁻¹

## C8G A15G A64G
[1]
  self-cleavage kobs at 40 uM GlcN6P: < 1e-05 s⁻¹

## C8G A33C
[1]
  self-cleavage kobs at 40 uM GlcN6P: < 1e-05 s⁻¹
[2]
  self-cleavage kobs at 640 uM GlcN6P: < 1e-05 s⁻¹
[4]
  self-cleavage kobs at 160 uM GlcN6P: < 1e-05 s⁻¹
[3]
  self-cleavage kobs at 2500 uM GlcN6P: < 1e-05 s⁻¹
[5]
  self-cleavage kobs at 10000 uM GlcN6P: < 1e-05 s⁻¹

## C8G C10U G41A
[1]
  self-cleavage kobs at 40 uM GlcN6P: < 1e-05 s⁻¹

## C8G C10U U31A
[1]
  self-cleavage kobs at 40 uM GlcN6P: < 1e-05 s⁻¹
[5]
  self-cleavage kobs at 10000 uM GlcN6P: < 1e-05 s⁻¹

## C8G C16G U46G U56C
[1]
  self-cleavage kobs at 40 uM GlcN6P: < 1e-05 s⁻¹
[3]
  self-cleavage kobs at 2500 uM GlcN6P: < 1e-05 s⁻¹
[5]
  self-cleavage kobs at 10000 uM GlcN6P: < 1e-05 s⁻¹

## C8G G13C U31A A39G U57A
[1]
  self-cleavage kobs at 40 uM GlcN6P: < 1e-05 s⁻¹
[5]
  self-cleavage kobs at 10000 uM GlcN6P: < 1e-05 s⁻¹

## C8G G29A
[1]
  self-cleavage kobs at 40 uM GlcN6P: < 1e-05 s⁻¹
[2]
  self-cleavage kobs at 640 uM GlcN6P: < 1e-05 s⁻¹
[4]
  self-cleavage kobs at 160 uM GlcN6P: < 1e-05 s⁻¹
[3]
  self-cleavage kobs at 2500 uM GlcN6P: < 1e-05 s⁻¹

## C8G G35U
[1]
  self-cleavage kobs at 40 uM GlcN6P: < 1e-05 s⁻¹
[2]
  self-cleavage kobs at 640 uM GlcN6P: < 1e-05 s⁻¹
[4]
  self-cleavage kobs at 160 uM GlcN6P: < 1e-05 s⁻¹
[3]
  self-cleavage kobs at 2500 uM GlcN6P: < 1e-05 s⁻¹
[5]
  self-cleavage kobs at 10000 uM GlcN6P: < 1e-05 s⁻¹

## C8G G44A U47C
[1]
  self-cleavage kobs at 40 uM GlcN6P: < 1e-05 s⁻¹
[5]
  self-cleavage kobs at 10000 uM GlcN6P: < 1e-05 s⁻¹

## C8G G44C U46A U56A U57A G63A
[1]
  self-cleavage kobs at 40 uM GlcN6P: < 1e-05 s⁻¹

## C8G G60C C68A
[1]
  self-cleavage kobs at 40 uM GlcN6P: < 1e-05 s⁻¹
[5]
  self-cleavage kobs at 10000 uM GlcN6P: < 1e-05 s⁻¹

## C8G U31C
[1]
  self-cleavage kobs at 40 uM GlcN6P: < 1e-05 s⁻¹
[2]
  self-cleavage kobs at 640 uM GlcN6P: < 1e-05 s⁻¹
[3]
  self-cleavage kobs at 2500 uM GlcN6P: < 1e-05 s⁻¹
[5]
  self-cleavage kobs at 10000 uM GlcN6P: < 1e-05 s⁻¹

## C8G U47G
[1]
  self-cleavage kobs at 40 uM GlcN6P: < 1e-05 s⁻¹
[2]
  self-cleavage kobs at 640 uM GlcN6P: < 1e-05 s⁻¹
[4]
  self-cleavage kobs at 160 uM GlcN6P: < 1e-05 s⁻¹
[3]
  self-cleavage kobs at 2500 uM GlcN6P: < 1e-05 s⁻¹

## C8G U56G
[1]
  self-cleavage kobs at 40 uM GlcN6P: < 1e-05 s⁻¹
[2]
  self-cleavage kobs at 640 uM GlcN6P: < 1e-05 s⁻¹
[4]
  self-cleavage kobs at 160 uM GlcN6P: < 1e-05 s⁻¹
[3]
  self-cleavage kobs at 2500 uM GlcN6P: < 1e-05 s⁻¹

## C8U A14U
[1]
  self-cleavage kobs at 40 uM GlcN6P: < 1e-05 s⁻¹
[2]
  self-cleavage kobs at 640 uM GlcN6P: < 1e-05 s⁻¹
[3]
  self-cleavage kobs at 2500 uM GlcN6P: < 1e-05 s⁻¹
[5]
  self-cleavage kobs at 10000 uM GlcN6P: < 1e-05 s⁻¹

## C8U A14U G59C
[1]
  self-cleavage kobs at 40 uM GlcN6P: < 1e-05 s⁻¹
[5]
  self-cleavage kobs at 10000 uM GlcN6P: < 1e-05 s⁻¹

## C8U A36G
[1]
  self-cleavage kobs at 40 uM GlcN6P: < 1e-05 s⁻¹
[2]
  self-cleavage kobs at 640 uM GlcN6P: < 1e-05 s⁻¹
[4]
  self-cleavage kobs at 160 uM GlcN6P: < 1e-05 s⁻¹
[3]
  self-cleavage kobs at 2500 uM GlcN6P: < 1e-05 s⁻¹
[5]
  self-cleavage kobs at 10000 uM GlcN6P: < 1e-05 s⁻¹

## C8U A48C
[1]
  self-cleavage kobs at 40 uM GlcN6P: < 1e-05 s⁻¹
[2]
  self-cleavage kobs at 640 uM GlcN6P: < 1e-05 s⁻¹
[5]
  self-cleavage kobs at 10000 uM GlcN6P: < 1e-05 s⁻¹

## C8U A52U
[1]
  self-cleavage kobs at 40 uM GlcN6P: < 1e-05 s⁻¹
[2]
  self-cleavage kobs at 640 uM GlcN6P: < 1e-05 s⁻¹
[4]
  self-cleavage kobs at 160 uM GlcN6P: < 1e-05 s⁻¹
[3]
  self-cleavage kobs at 2500 uM GlcN6P: < 1e-05 s⁻¹
[5]
  self-cleavage kobs at 10000 uM GlcN6P: < 1e-05 s⁻¹

## C8U C11U
[1]
  self-cleavage kobs at 40 uM GlcN6P: < 1e-05 s⁻¹
[2]
  self-cleavage kobs at 640 uM GlcN6P: < 1e-05 s⁻¹
[4]
  self-cleavage kobs at 160 uM GlcN6P: < 1e-05 s⁻¹
[3]
  self-cleavage kobs at 2500 uM GlcN6P: < 1e-05 s⁻¹
[5]
  self-cleavage kobs at 10000 uM GlcN6P: < 1e-05 s⁻¹

## C8U C50U
[1]
  self-cleavage kobs at 40 uM GlcN6P: < 1e-05 s⁻¹
[2]
  self-cleavage kobs at 640 uM GlcN6P: < 1e-05 s⁻¹
[4]
  self-cleavage kobs at 160 uM GlcN6P: < 1e-05 s⁻¹

## C8U G9A A15C A36G U49C U57G
[1]
  self-cleavage kobs at 40 uM GlcN6P: < 1e-05 s⁻¹

## C8U G37U G41U C61U
[1]
  self-cleavage kobs at 40 uM GlcN6P: < 1e-05 s⁻¹
[5]
  self-cleavage kobs at 10000 uM GlcN6P: < 1e-05 s⁻¹

## C8U G41U
[1]
  self-cleavage kobs at 40 uM GlcN6P: < 1e-05 s⁻¹

## C8U U31C C67G
[1]
  self-cleavage kobs at 40 uM GlcN6P: < 1e-05 s⁻¹
[2]
  self-cleavage kobs at 640 uM GlcN6P: < 1e-05 s⁻¹
[5]
  self-cleavage kobs at 10000 uM GlcN6P: < 1e-05 s⁻¹

## G9A
[1]
  self-cleavage kobs at 40 uM GlcN6P: < 1e-05 s⁻¹
[4]
  self-cleavage kobs at 160 uM GlcN6P: < 1e-05 s⁻¹
[3]
  self-cleavage kobs at 2500 uM GlcN6P: 1.33e-05 ± 3e-06 s⁻¹
[5]
  self-cleavage kobs at 10000 uM GlcN6P: 2.61e-05 ± 1.5e-06 s⁻¹

## G9A A12U G41U
[1]
  self-cleavage kobs at 40 uM GlcN6P: < 1e-05 s⁻¹
[3]
  self-cleavage kobs at 2500 uM GlcN6P: < 1e-05 s⁻¹

## G9A A14G G32U U65A
[1]
  self-cleavage kobs at 40 uM GlcN6P: < 1e-05 s⁻¹
[3]
  self-cleavage kobs at 2500 uM GlcN6P: < 1e-05 s⁻¹
[5]
  self-cleavage kobs at 10000 uM GlcN6P: < 1e-05 s⁻¹

## G9A A15C
[1]
  self-cleavage kobs at 40 uM GlcN6P: < 1e-05 s⁻¹

## G9A A15G U30C
[1]
  self-cleavage kobs at 40 uM GlcN6P: < 1e-05 s⁻¹

## G9A C58U C61G
[1]
  self-cleavage kobs at 40 uM GlcN6P: < 1e-05 s⁻¹

## G9A G13A C34G U49C C68U
[1]
  self-cleavage kobs at 40 uM GlcN6P: < 1e-05 s⁻¹

## G9A G37C U56G G63U
[1]
  self-cleavage kobs at 40 uM GlcN6P: < 1e-05 s⁻¹

## G9A G44A C67A
[1]
  self-cleavage kobs at 40 uM GlcN6P: < 1e-05 s⁻¹

## G9A U46A
[1]
  self-cleavage kobs at 40 uM GlcN6P: < 1e-05 s⁻¹
[2]
  self-cleavage kobs at 640 uM GlcN6P: < 1e-05 s⁻¹
[5]
  self-cleavage kobs at 10000 uM GlcN6P: < 1e-05 s⁻¹

## G9A U46A C61U G62U A64G
[1]
  self-cleavage kobs at 40 uM GlcN6P: < 1e-05 s⁻¹
[5]
  self-cleavage kobs at 10000 uM GlcN6P: < 1e-05 s⁻¹

## G9C
[1]
  self-cleavage kobs at 40 uM GlcN6P: < 1e-05 s⁻¹
[2]
  self-cleavage kobs at 640 uM GlcN6P: < 1e-05 s⁻¹
[4]
  self-cleavage kobs at 160 uM GlcN6P: < 1e-05 s⁻¹
[3]
  self-cleavage kobs at 2500 uM GlcN6P: < 1e-05 s⁻¹
[5]
  self-cleavage kobs at 10000 uM GlcN6P: < 1e-05 s⁻¹

## G9C C50U
[1]
  self-cleavage kobs at 40 uM GlcN6P: < 1e-05 s⁻¹
[2]
  self-cleavage kobs at 640 uM GlcN6P: < 1e-05 s⁻¹
[4]
  self-cleavage kobs at 160 uM GlcN6P: < 1e-05 s⁻¹
[5]
  self-cleavage kobs at 10000 uM GlcN6P: < 1e-05 s⁻¹

## G9C G32A G43U
[1]
  self-cleavage kobs at 40 uM GlcN6P: < 1e-05 s⁻¹
[5]
  self-cleavage kobs at 10000 uM GlcN6P: < 1e-05 s⁻¹

## G9C G35A
[1]
  self-cleavage kobs at 40 uM GlcN6P: < 1e-05 s⁻¹
[2]
  self-cleavage kobs at 640 uM GlcN6P: < 1e-05 s⁻¹
[4]
  self-cleavage kobs at 160 uM GlcN6P: < 1e-05 s⁻¹
[5]
  self-cleavage kobs at 10000 uM GlcN6P: < 1e-05 s⁻¹

## G9C G41U
[1]
  self-cleavage kobs at 40 uM GlcN6P: < 1e-05 s⁻¹
[2]
  self-cleavage kobs at 640 uM GlcN6P: < 1e-05 s⁻¹
[4]
  self-cleavage kobs at 160 uM GlcN6P: < 1e-05 s⁻¹
[3]
  self-cleavage kobs at 2500 uM GlcN6P: < 1e-05 s⁻¹
[5]
  self-cleavage kobs at 10000 uM GlcN6P: < 1e-05 s⁻¹

## G9C G51A C71U
[1]
  self-cleavage kobs at 40 uM GlcN6P: < 1e-05 s⁻¹
[2]
  self-cleavage kobs at 640 uM GlcN6P: < 1e-05 s⁻¹
[5]
  self-cleavage kobs at 10000 uM GlcN6P: < 1e-05 s⁻¹

## G9C U30A
[1]
  self-cleavage kobs at 40 uM GlcN6P: < 1e-05 s⁻¹
[2]
  self-cleavage kobs at 640 uM GlcN6P: < 1e-05 s⁻¹

## G9C U30G
[1]
  self-cleavage kobs at 40 uM GlcN6P: < 1e-05 s⁻¹
[2]
  self-cleavage kobs at 640 uM GlcN6P: < 1e-05 s⁻¹
[4]
  self-cleavage kobs at 160 uM GlcN6P: < 1e-05 s⁻¹

## G9C U30G G32U G44C C58U
[1]
  self-cleavage kobs at 40 uM GlcN6P: < 1e-05 s⁻¹
